Source: PubChem BioAssay AID588342 (National Center for Advancing Translational Sciences (NCATS), 2011)
Where “and” joins values, the source holds several entries; their conditions need not be identical. Equal entries are not always repeated. About 25,000 (6.9%) of roughly 360,000 compounds were called active. Inconclusive results, whose numbers are uncertain, are shown with a selection of clear calls. Calls come from the whole dose curve; as a rule, active = well fitted inhibition curve with a large enough effect; inconclusive = small, poorly fitted or top-dose-only effect; inactive = flat fitted curve, though single readings scatter. Where the call is inconclusive, the potency comes from a doubtful curve fit.

What follows are molecules tested against Luciferin 4-monooxygenase (Photinus pyralis) (UniProt P08659) (assay: qHTS profiling assay for firefly luciferase inhibitor/activator using purifed enzyme and Km concentrations of substrates (counterscreen for miR-21 project)). Conditions: purified FLuc, luminescence inhibition; series mostly up to 57.5 µM.
Outline: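 Purified P. pyralis luciferase, 10 nM final, with Km-level 10 uM D-luciferin and 10 uM ATP in 50 mM Tris acetate pH 7.5, 10 mM Mg acetate, 0.01% Tween-20, 0.05% BSA; 6-point qHTS titration about 60 µM downward; luminescence read.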
Note: nearly all actives have a fitted effect of over 55% in size.
Potency is the fitted concentration of half-maximal effect; tags give direction and shape of the fitted curve.

UniProt P08659, sequence (P08659 whole entry, looked up): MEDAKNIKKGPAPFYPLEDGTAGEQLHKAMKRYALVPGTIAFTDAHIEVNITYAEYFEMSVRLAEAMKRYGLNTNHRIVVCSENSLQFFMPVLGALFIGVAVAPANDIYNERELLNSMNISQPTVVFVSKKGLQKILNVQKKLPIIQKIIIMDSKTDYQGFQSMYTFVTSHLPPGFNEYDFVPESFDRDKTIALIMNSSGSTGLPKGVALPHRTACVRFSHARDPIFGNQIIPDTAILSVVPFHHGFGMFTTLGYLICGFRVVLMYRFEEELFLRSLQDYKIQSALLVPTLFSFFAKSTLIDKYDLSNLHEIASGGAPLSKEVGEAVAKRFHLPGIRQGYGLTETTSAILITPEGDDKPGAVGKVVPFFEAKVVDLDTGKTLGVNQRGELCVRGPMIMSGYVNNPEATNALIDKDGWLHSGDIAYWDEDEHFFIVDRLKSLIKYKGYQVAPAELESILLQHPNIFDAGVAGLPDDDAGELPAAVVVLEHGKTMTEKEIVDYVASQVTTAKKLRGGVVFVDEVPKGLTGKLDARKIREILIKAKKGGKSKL

Row | SMILES | Potency
1 | Cc1cccc(-n2[nH]c3c4c(ccc3c2=O)C(=O)c2ccccc2C4=O)c1 | inconclusive: 15.1 µM [inhibitor, partial curve]
2 | Cc1ccc(C)c(N2CCN(S(=O)(=O)c3ccc(-c4cc(C(F)(F)F)on4)s3)CC2)c1 | inactive
3 | COc1ccc2nc(NC(=O)C34CC5CC(CC(NC(C)=O)(C5)C3)C4)sc2c1 | inconclusive: 23.9 µM [inhibitor, partial curve]
4 | COc1ccc(N2CCCC2)c(NC(=O)c2ccc(Br)o2)c1 | inactive
5 | CCOc1ccc(Cc2nnc(SCC(=O)Nc3ccc(C(C)=O)cc3)[nH]c2=O)cc1 | inconclusive: 30.1 µM [inhibitor, single point]
6 | CCCc1ccc(C2=Nn3c(nnc3C(C)C)SC2)cc1 | inconclusive: 37.9 µM [inhibitor, partial curve, poor fit]
7 | Oc1c(Cl)cc(Cl)cc1C1=NNC(c2ccc(Cl)cc2)C1 (centres undefined) | inconclusive: 4.26 µM [inhibitor, partial curve, poor fit]
8 | CCOc1ccc(NC(=O)CSc2ncn[nH]2)cc1 | inconclusive: 30.1 µM [inhibitor, partial curve, poor fit] and inconclusive: 19 µM [inhibitor, single point]
9 | CCOC(=O)Cn1nnc(-c2ccc(OCC(C)C)cc2)n1 | inconclusive: 16.9 µM [inhibitor, partial curve]
10 | CC(C)(C)C(=O)/C=c1\[nH]c(=O)/c(=C\c2ccccc2F)s1 | inconclusive: 4.26 µM [inhibitor, partial curve, poor fit]
11 | Cc1ccc(OCCN2C(=O)c3ccccc3C2=O)cc1 | inconclusive: 30.1 µM [inhibitor, single point]
12 | COc1ccc(OC)c(NC(=O)c2cnn(-c3ccccc3)c2C)c1 | inconclusive: 26.9 µM [inhibitor, single point]
13 | Cc1cccc(NC(=O)c2nc[nH]c2C(=O)N(C)Cc2ccccc2)c1 | inconclusive: 33.8 µM [inhibitor, single point]
14 | Cc1csc(NC(=O)c2sccc2C)n1 | active: 10.7 µM
15 | COc1ccc(S(=O)(=O)N(Cc2ccco2)Cc2cc3ccccc3[nH]c2=O)cc1 | inactive
16 | Cc1ccc(NC(=O)CO/N=C(\N)c2nonc2N)cc1 | inconclusive: 23.9 µM [inhibitor, partial curve]
17 | COc1ccc(-c2cc3onc(-c4c(Cl)cccc4Cl)c3c(=O)n2C)cc1 | inconclusive: 26.9 µM [inhibitor, single point]
18 | Cc1ccc(C(=O)O/N=C/c2ccc(N(C)C)cc2)cc1 | inconclusive: 0.849 µM [inhibitor, full curve]
19 | Cc1cccc(-c2nc(C#N)c(N3CCCCCC3)o2)c1 | active: 10.7 µM
20 | Fc1cc2nc(-c3ccncc3)[nH]c2cc1F | inconclusive: 23.9 µM [inhibitor, partial curve]
21 | CCc1noc(C)c1C(=O)Nc1nc2c(C)cc(C)cc2s1 | active: 10.7 µM
22 | COc1cc(/C=N/NC(N)=O)ccc1OC(=O)c1cccs1 | inactive

Row | SMILES | Potency
23 | CCOC(=O)c1c(C)[nH]c(C2=NNC(=NC3CC3)SC2)c1C | active: 0.601 µM
24 | COc1ccccc1C(=O)Nc1ccc(S(=O)(=O)NC2=NCCCCC2)cc1 | inactive
25 | Cc1ccc(NC(=O)CCn2c(=O)c3cccn3c3ccccc32)cc1C | inconclusive: 9.53 µM [inhibitor, partial curve, poor fit] and inconclusive: 30.1 µM [inhibitor, single point]
26 | CC(NC(=O)/C(=C\c1cccc([N+](=O)[O-])c1)NC(=O)c1ccco1)C(=O)O (centres undefined) | active: 15.1 µM
27 | O=C(OC1CCOC1=O)c1ccc(N2CCCC2)c([N+](=O)[O-])c1 (centres undefined) | inconclusive: 37.9 µM [inhibitor, partial curve, poor fit]
28 | CCCCC(=O)Nc1cccc(NC(=O)c2ccc3c(c2)OCO3)c1 | active: 19 µM
29 | CCOc1ccc(N2CC(c3nc4ccccc4n3CCCOc3ccccc3)CC2=O)cc1 (centres undefined) | inconclusive: 37.9 µM [inhibitor, partial curve, poor fit]
30 | Cc1c(C(=O)NCC(c2ccc(Cl)cc2)N2CCOCC2)oc2ccccc12 (centres undefined) | inactive
31 | COc1ccc(C2CC(c3cccs3)=NN2c2ccc(C=O)cc2)cc1 (centres undefined) | inconclusive: 23.9 µM [inhibitor, partial curve, poor fit]
32 | O=C(c1cn(Cc2ccccc2)nc1-c1cccnc1)N1CCN(Cc2ccccc2)CC1 | inactive
33 | C/C(=N\NS(=O)(=O)c1ccc([N+](=O)[O-])cc1)c1ccc(NC(=O)c2ccco2)cc1 | inconclusive: 23.9 µM [inhibitor, partial curve]
34 | Cc1cc2nc(-c3ccc(SCC(=O)N4CCN(C(=O)c5ccco5)CC4)nc3)[nH]c2cc1C | active: 0.478 µM
35 | CN(C)c1ccc(C(=O)NCc2ccc3c(c2)CCO3)cc1 | inconclusive: 30.1 µM [inhibitor, single point]
36 | CCCCN(C)CCNC(=O)c1c2c(nc3ccccc13)C(=O)N(C1CCCCC1)C2 | inactive
37 | Cc1ccc(-c2cc(-c3ccccc3)no2)cc1 | active: 0.301 µM
38 | CC1CC(c2ccccc2)=Nc2ccccc2N1 (centres undefined) | inconclusive: 21.3 µM [inhibitor, single point]
39 | Cc1cc(C(=O)COC(=O)c2cc(O)c3ccccc3c2O)c(C)n1CC1CCCO1 (centres undefined) | active: 19 µM
40 | CC(=O)c1cccc(OCC(=O)N2CCCc3ccccc32)c1 | inconclusive: 30.1 µM [inhibitor, partial curve, poor fit]
41 | Cc1ccc(CN(C(=O)COc2ccc([N+](=O)[O-])cc2)c2ccccn2)cc1 | inactive
42 | O=C(Nc1c(C(=O)Nc2ccc3c(c2)OCCO3)cnn1-c1ccccc1Cl)c1ccco1 | inconclusive: 26.9 µM [inhibitor, single point]
43 | CC(C)(C)C(=O)Nc1cccc(C(=O)c2cccc(NC(=O)C(C)(C)C)c2)c1 | inconclusive: 21.3 µM [inhibitor, partial curve]
44 | Cc1ccc2c(=O)cc(C(=O)Nc3nc4ccc(Cl)cc4s3)oc2c1C | inactive
